Data taken from the supplement of paper PMC12067230.
Single values of this set are uncertain.
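Also: [psi-pin-] Saccharomyces cerevisiae expressing SupN fusions, induced by 100 µM Cu2SO4, selected 7 d at 30 °C without adenine and uracil, scored by deep sequencing of output versus input.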

Assay: amyloid nucleation score relative to library mode (yeast Sup35 reporter selection) (log enrichment difference); higher = more amyloid nucleation; sequences are the first 22 residues of the Bri2 peptide extended by up to 12 random residues
Settings: random library (experiment): 1;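 active = nucleation score significantly above 0 at FDR 0.05; inactive = not significantly above 0 or absent from output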
For EASNCFAIRHFENKFAVETLICLRCAAL, the amyloid nucleation score was “inactive”.
EASNCFAIRHFENKFAVETLICLRCLIRSYSVYV showed an amyloid nucleation score of -0.211.
In the case of EASNCFAIRHFENKFAVETLICLRCSDECHVMLP, the amyloid nucleation score is reported as “inactive”.
In the case of EASNCFAIRHFENKFAVETLICLRCT, the amyloid nucleation score is reported as 3.66.
With EASNCFAIRHFENKFAVETLICLRCVTTLACGIK the amyloid nucleation score was “inactive”.
Work on EASNCFAIRHFENKFAVETLICLRCVVNACFIEC yielded an amyloid nucleation score of 2.46.
EASNCFAIRHFENKFAVETLICLRCVVRSRMD showed an amyloid nucleation score of 2.14.
For EASNCFAIRHFENKFAVETLICLRDRCMSSCSLS, the amyloid nucleation score was -0.317.
EASNCFAIRHFENKFAVETLICLREFQARRRWDA gave an amyloid nucleation score of 3.19.
In the case of EASNCFAIRHFENKFAVETLICLRF, the amyloid nucleation score is reported as -0.972.
With EASNCFAIRHFENKFAVETLICLRFCVSCSTFVM the amyloid nucleation score was “inactive”.
With EASNCFAIRHFENKFAVETLICLRFPRTDDGMRR the amyloid nucleation score was “inactive”.
In the case of EASNCFAIRHFENKFAVETLICLRGAHILAASEI, the amyloid nucleation score is reported as “inactive”.
For EASNCFAIRHFENKFAVETLICLRGRAGLTCLGS, the amyloid nucleation score was “inactive”.
With EASNCFAIRHFENKFAVETLICLRGRPTVSPARR the amyloid nucleation score was “inactive”.
EASNCFAIRHFENKFAVETLICLRHGRTVIDERG showed an amyloid nucleation score of 3.56.
EASNCFAIRHFENKFAVETLICLRISLSNGCVCC showed an amyloid nucleation score of 4.53.
Work on EASNCFAIRHFENKFAVETLICLRIVSCASMPGN yielded an amyloid nucleation score of 0.358.
With EASNCFAIRHFENKFAVETLICLRKKGGEQLPFG the amyloid nucleation score was “inactive”.
For EASNCFAIRHFENKFAVETLICLRKRTTLGLGRG, the amyloid nucleation score was “inactive”.
In the case of EASNCFAIRHFENKFAVETLICLRKYPLYNRFSR, the amyloid nucleation score is reported as 0.
For EASNCFAIRHFENKFAVETLICLRL, the amyloid nucleation score was “inactive”.
With EASNCFAIRHFENKFAVETLICLRLDDVTLTSFG the amyloid nucleation score was “inactive”.
Work on EASNCFAIRHFENKFAVETLICLRLDRLFTIWYL yielded an amyloid nucleation score of 6.
In the case of EASNCFAIRHFENKFAVETLICLRLFRCMWCNS, the amyloid nucleation score is reported as “inactive”.
EASNCFAIRHFENKFAVETLICLRLGLQGLLPPL showed an amyloid nucleation score of 4.16.
With EASNCFAIRHFENKFAVETLICLRLP the amyloid nucleation score was “inactive”.
In the case of EASNCFAIRHFENKFAVETLICLRLTSIVTLEAW, the amyloid nucleation score is reported as “inactive”.
With EASNCFAIRHFENKFAVETLICLRLVLWPCSRSL the amyloid nucleation score was “inactive”.
EASNCFAIRHFENKFAVETLICLRLVPKLLTIGL gave an amyloid nucleation score of 2.82.
With EASNCFAIRHFENKFAVETLICLRMGWERCPVRW the amyloid nucleation score was “inactive”.
In the case of EASNCFAIRHFENKFAVETLICLRNGLNNQLCVG, the amyloid nucleation score is reported as “inactive”.
For EASNCFAIRHFENKFAVETLICLRNNVFRFPYM, the amyloid nucleation score was “inactive”.
EASNCFAIRHFENKFAVETLICLRNVGESRITIK gave an amyloid nucleation score of 0.307.
In the case of EASNCFAIRHFENKFAVETLICLRPCFAWLVALR, the amyloid nucleation score is reported as 4.68.
In the case of EASNCFAIRHFENKFAVETLICLRPCGCVRGCVR, the amyloid nucleation score is reported as “inactive”.
For EASNCFAIRHFENKFAVETLICLRQFRVTEKGFT, the amyloid nucleation score was “inactive”.
With EASNCFAIRHFENKFAVETLICLRQTGTQFAWV the amyloid nucleation score was 2.64.
With EASNCFAIRHFENKFAVETLICLRRFTRFKEVA the amyloid nucleation score was “inactive”.
With EASNCFAIRHFENKFAVETLICLRRI the amyloid nucleation score was 4.18.
Work on EASNCFAIRHFENKFAVETLICLRRLLRSREFVM yielded an amyloid nucleation score of 0.636.
With EASNCFAIRHFENKFAVETLICLRRSNTGAGLCR the amyloid nucleation score was “inactive”.
Sequence EASNCFAIRHFENKFAVETLICLRRTVVKGNSRW has an amyloid nucleation score of -0.137.
EASNCFAIRHFENKFAVETLICLRSGMSKTGR showed an amyloid nucleation score of -0.0755.
With EASNCFAIRHFENKFAVETLICLRSGRSERRRSR the amyloid nucleation score was “inactive”.
With EASNCFAIRHFENKFAVETLICLRSIPFTSPGRS the amyloid nucleation score was “inactive”.
For EASNCFAIRHFENKFAVETLICLRSLS, the amyloid nucleation score was “inactive”.
In the case of EASNCFAIRHFENKFAVETLICLRSLSKLRSYGL, the amyloid nucleation score is reported as “inactive”.
With EASNCFAIRHFENKFAVETLICLRTMGRAEEVSG the amyloid nucleation score was “inactive”.
With EASNCFAIRHFENKFAVETLICLRVFWRIACIES the amyloid nucleation score was “inactive”.
With EASNCFAIRHFENKFAVETLICLRVHSWYVYMYR the amyloid nucleation score was “inactive”.
With EASNCFAIRHFENKFAVETLICLRVIIG the amyloid nucleation score was “inactive”.
With EASNCFAIRHFENKFAVETLICLRVTIWPSSMCI the amyloid nucleation score was “inactive”.
Sequence EASNCFAIRHFENKFAVETLICLRVWKMTAGGW has an amyloid nucleation score of -0.0846.
For EASNCFAIRHFENKFAVETLICLRYGEKIRWRYA, the amyloid nucleation score was “inactive”.
For EASNCFAIRHFENKFAVETLICLRYSLVVRRGMS, the amyloid nucleation score was 0.578.
In the case of EASNCFAIRHFENKFAVETLICLRYWAGLMEEWR, the amyloid nucleation score is reported as “inactive”.

Same assay, conditions: random library (experiment): 2
For EASNCFAIRHFENKFAVETLICLRCCFLCYKRLR, the amyloid nucleation score was “inactive”.
For EASNCFAIRHFENKFAVETLICLRCSV, the amyloid nucleation score was “inactive”.
Work on EASNCFAIRHFENKFAVETLICLRCTRCSYCSGF yielded an amyloid nucleation score of 2.16.
In the case of EASNCFAIRHFENKFAVETLICLRESYCISYPRV, the amyloid nucleation score is reported as “inactive”.
With EASNCFAIRHFENKFAVETLICLRFMRLKLCDWL the amyloid nucleation score was “inactive”.
For EASNCFAIRHFENKFAVETLICLRFTKHLARFIV, the amyloid nucleation score was “inactive”.
For EASNCFAIRHFENKFAVETLICLRGDTRIKSV, the amyloid nucleation score was “inactive”.
In the case of EASNCFAIRHFENKFAVETLICLRHTSGMHYLGW, the amyloid nucleation score is reported as 0.58.
In the case of EASNCFAIRHFENKFAVETLICLRIKSLLTMIHT, the amyloid nucleation score is reported as “inactive”.
For EASNCFAIRHFENKFAVETLICLRILFA, the amyloid nucleation score was “inactive”.
For EASNCFAIRHFENKFAVETLICLRIMYFSFNVLG, the amyloid nucleation score was “inactive”.
With EASNCFAIRHFENKFAVETLICLRIRKLAYYWTG the amyloid nucleation score was “inactive”.
With EASNCFAIRHFENKFAVETLICLRLCMSILHAVY the amyloid nucleation score was “inactive”.
For EASNCFAIRHFENKFAVETLICLRLCYTRGRGVI, the amyloid nucleation score was “inactive”.
With EASNCFAIRHFENKFAVETLICLRLW the amyloid nucleation score was 5.05.
In the case of EASNCFAIRHFENKFAVETLICLRMEAEASSVWV, the amyloid nucleation score is reported as “inactive”.
With EASNCFAIRHFENKFAVETLICLRMHLPSQDSHM the amyloid nucleation score was 2.95.
For EASNCFAIRHFENKFAVETLICLRQFIKVYHQRH, the amyloid nucleation score was “inactive”.
In the case of EASNCFAIRHFENKFAVETLICLRQNFVDGIVLD, the amyloid nucleation score is reported as “inactive”.
With EASNCFAIRHFENKFAVETLICLRRLCIYFNLS the amyloid nucleation score was -0.708.
With EASNCFAIRHFENKFAVETLICLRRQYFRSIFKS the amyloid nucleation score was “inactive”.
Work on EASNCFAIRHFENKFAVETLICLRSMHFYFRRGR yielded an amyloid nucleation score of -0.191.
With EASNCFAIRHFENKFAVETLICLRSMIVSCGCHA the amyloid nucleation score was “inactive”.
With EASNCFAIRHFENKFAVETLICLRSPFIILTYRW the amyloid nucleation score was “inactive”.
In the case of EASNCFAIRHFENKFAVETLICLRSSIVF, the amyloid nucleation score is reported as “inactive”.
Work on EASNCFAIRHFENKFAVETLICLRSYKVCPSFCG yielded an amyloid nucleation score of 4.11.
Sequence EASNCFAIRHFENKFAVETLICLRTYAQRIGA has an amyloid nucleation score of 0.85.
Work on EASNCFAIRHFENKFAVETLICLRVACDRCGGSW yielded an amyloid nucleation score of -0.166.
In the case of EASNCFAIRHFENKFAVETLICLRVLYRNYLLGA, the amyloid nucleation score is reported as “inactive”.
For EASNCFAIRHFENKFAVETLICLRVVFGIERMVM, the amyloid nucleation score was “inactive”.
For EASNCFAIRHFENKFAVETLICLRVWCYCFMRFM, the amyloid nucleation score was “inactive”.
In the case of EASNCFAIRHFENKFAVETLICLRVWY, the amyloid nucleation score is reported as “inactive”.
For EASNCFAIRHFENKFAVETLICLRWRYNLVCRSC, the amyloid nucleation score was “inactive”.

Same assay, conditions: random library (experiment): 3
For EASNCFAIRHFENKFAVETLICLRAVKNLPVQLL, the amyloid nucleation score was “inactive”.
In the case of EASNCFAIRHFENKFAVETLICLRCLV, the amyloid nucleation score is reported as 1.66.
In the case of EASNCFAIRHFENKFAVETLICLRCMALEAEGRQ, the amyloid nucleation score is reported as “inactive”.
In the case of EASNCFAIRHFENKFAVETLICLRCTK, the amyloid nucleation score is reported as “inactive”.
In the case of EASNCFAIRHFENKFAVETLICLRCVQLCTKVIM, the amyloid nucleation score is reported as “inactive”.
In the case of EASNCFAIRHFENKFAVETLICLRCYVSAGVTSA, the amyloid nucleation score is reported as “inactive”.
In the case of EASNCFAIRHFENKFAVETLICLRDQSRCLRSEE, the amyloid nucleation score is reported as “inactive”.
For EASNCFAIRHFENKFAVETLICLREVVDGTKIGA, the amyloid nucleation score was “inactive”.
With EASNCFAIRHFENKFAVETLICLREWDSATYARK the amyloid nucleation score was 4.92.
In the case of EASNCFAIRHFENKFAVETLICLRFGKARKRRSR, the amyloid nucleation score is reported as “inactive”.
With EASNCFAIRHFENKFAVETLICLRFYLYSSSPCA the amyloid nucleation score was “inactive”.
In the case of EASNCFAIRHFENKFAVETLICLRGSCSYQFRVV, the amyloid nucleation score is reported as “inactive”.
For EASNCFAIRHFENKFAVETLICLRHVGAE, the amyloid nucleation score was “inactive”.
In the case of EASNCFAIRHFENKFAVETLICLRIDDGFAWCGG, the amyloid nucleation score is reported as “inactive”.
With EASNCFAIRHFENKFAVETLICLRMGNWGGKAFP the amyloid nucleation score was “inactive”.
Work on EASNCFAIRHFENKFAVETLICLRMSRRWYTDGR yielded an amyloid nucleation score of 1.62.
In the case of EASNCFAIRHFENKFAVETLICLRRAVR, the amyloid nucleation score is reported as “inactive”.
EASNCFAIRHFENKFAVETLICLRRGGTGDGRKP showed an amyloid nucleation score of 3.57.
In the case of EASNCFAIRHFENKFAVETLICLRRIVARVSARC, the amyloid nucleation score is reported as “inactive”.
For EASNCFAIRHFENKFAVETLICLRRLAW, the amyloid nucleation score was “inactive”.
In the case of EASNCFAIRHFENKFAVETLICLRRSGSTVPDAA, the amyloid nucleation score is reported as “inactive”.
With EASNCFAIRHFENKFAVETLICLRSVTSWARVSW the amyloid nucleation score was “inactive”.
For EASNCFAIRHFENKFAVETLICLRTVMVALLRIT, the amyloid nucleation score was “inactive”.
For EASNCFAIRHFENKFAVETLICLRVLAFGDGKHG, the amyloid nucleation score was “inactive”.
With EASNCFAIRHFENKFAVETLICLRVLASWKLFGP the amyloid nucleation score was “inactive”.
Sequence EASNCFAIRHFENKFAVETLICLRVSTP has an amyloid nucleation score of 1.08.
For EASNCFAIRHFENKFAVETLICLRWFHNLNVDDS, the amyloid nucleation score was “inactive”.
With EASNCFAIRHFENKFAVETLICLRWFVHEAGEPR the amyloid nucleation score was “inactive”.
